Test results published in the supplement of paper PMC3334620.
Over roughly 33,000 sequences, “E-score (-0.5 to 0.5)” has its median near -0.021; the highest 2% begin near 0.32. Some of the results follow.

These sequences were tested against T1, Zap1 (UniProt P47043) (assay: PBM E-score (8-mer binding enrichment) (E-score (-0.5 to 0.5)); higher = stronger / more preferred TF binding; most listed sequences are background and not binding sites). Conditions: protein concentration: 200 nM; construct: GST-full length.
T1 sequence: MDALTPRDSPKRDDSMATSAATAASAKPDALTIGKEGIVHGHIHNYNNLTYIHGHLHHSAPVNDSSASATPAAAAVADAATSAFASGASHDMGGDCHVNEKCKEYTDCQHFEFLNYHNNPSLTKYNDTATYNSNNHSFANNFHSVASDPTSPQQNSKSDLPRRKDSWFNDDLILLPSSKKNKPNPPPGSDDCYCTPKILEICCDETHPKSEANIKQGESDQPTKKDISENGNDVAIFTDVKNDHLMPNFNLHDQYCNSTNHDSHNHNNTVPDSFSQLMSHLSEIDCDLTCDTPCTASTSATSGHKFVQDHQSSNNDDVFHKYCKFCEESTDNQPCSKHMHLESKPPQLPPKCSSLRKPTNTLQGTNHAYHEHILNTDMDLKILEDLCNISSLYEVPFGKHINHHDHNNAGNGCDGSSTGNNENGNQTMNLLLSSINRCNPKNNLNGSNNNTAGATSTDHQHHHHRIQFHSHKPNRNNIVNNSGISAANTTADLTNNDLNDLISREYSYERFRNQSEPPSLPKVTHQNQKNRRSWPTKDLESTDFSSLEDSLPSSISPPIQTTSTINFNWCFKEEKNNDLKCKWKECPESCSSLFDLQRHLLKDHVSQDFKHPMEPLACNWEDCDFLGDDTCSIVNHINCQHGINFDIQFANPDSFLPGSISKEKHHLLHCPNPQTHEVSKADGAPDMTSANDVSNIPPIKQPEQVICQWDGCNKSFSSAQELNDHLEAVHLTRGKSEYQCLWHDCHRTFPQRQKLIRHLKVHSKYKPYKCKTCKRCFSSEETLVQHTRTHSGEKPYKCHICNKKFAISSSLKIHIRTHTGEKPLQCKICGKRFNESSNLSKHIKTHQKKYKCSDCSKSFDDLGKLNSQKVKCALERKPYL
Summary of the method: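 Full-length yeast transcription factors or their DNA-binding domains, GST-tagged and expressed with PURExpress, were applied at about 100-200 nM to universal all-10-mer Agilent arrays. These arrays had been made double-stranded by primer extension on fresh or once-stripped slides. Detection used fluorescent anti-GST, normalisation used masliner, and E-scores for ungapped eight-base words pooled with reverse complements came from the Universal PBM Analysis Suite.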

Sequence | PBM E-score
CGAGTGCA | -0.113
AGCTTATC | -0.0688
CTCGTAAG | 0.215
GCATGTAC | -0.123
GGTGAGCA | -0.12
CATAGCAA | -0.144
ATATTAAA | 0.309
CTTTACGA | 0.0176
CGGTACCA | 0.303
AAAAAGGA | 0.15
CCTGAAGC | -0.18
TGTTAAAA | 0.0204
ACGCAGGC | -0.211
TAAGGTGA | 0.155
AAGTCCTG | -0.127
CGAAGTAG | -0.206
CCTAGGCA | -0.199
ATGTACTG | 0.0212
ACGTTAGC | -0.0301
CAGTAAAC | 0.0236
ACGGCTCC | -0.198
CTCAGGTA | 0.0689
ATTAATAC | 0.344
GAGGCCTC | 0.0975
ACAACGAC | 0.0348

Sequence | PBM E-score
AATTTATC | 0.141
AGTAAAGA | 0.0117
ACCTGGAC | -0.00821
AATCGGAG | -0.142
CTAGATAC | 0.136
CAAGACAA | 0.046
AAAACTAT | 0.0776
TGCTCCCA | -0.0528
GGGTGCCA | 0.184
CTAGGTCC | 0.0303
AGCCACCG | -0.111
GCGACAGA | 0.0292
GAACACCC | 0.214
AGGTAAAA | 0.0951
TTGTACAA | 0.143
AATCTTTG | 0.114
GCAGCTGA | -0.139
CTACAAAA | 0.199
GATTCCCC | -0.221
AACTGTTG | -0.147
GAAGTCGA | -0.149
ATGGTTTG | 0.178
AAGCCGCA | -0.0267
ATAGCAGA | -0.112
AGCCAAGC | -0.307

Sequence | PBM E-score
GCTCTCAA | -0.0651
GGGAACCA | 0.066
GAAAGGCC | -0.0308
GGGGACTA | -0.17
CTGGTACA | 0.102
CAAAACAG | 0.0786
AGTTCTTC | -0.114
ACTACACG | 0.0523
ATCTTTTG | 0.113
CCTTTCGA | 0.114
GCGCTTTA | 0.0127
CGCTTCAA | 0.0925
CACGGCTA | -0.155
AACTATCG | 0.0124
GCGAGATA | 0.041
CTATGACC | 0.266
TCGGACCA | 0.047
ACGAGAGC | -0.281
AGGGCTAA | -0.145
ACTAGCTA | -0.0342
CGATCAAG | 0.0316
AGTTACTA | 0.129
GACTAGGA | -0.198
CTGGCCTA | -0.175
GAGCAACA | -0.0905

Sequence | PBM E-score
CGGCGAGC | -0.297
GCGATAAA | 0.0759
ACTGGGAG | -0.25
CCTGCAAG | -0.043
AGGCACTG | -0.0331
CGAAGACA | -0.141
TGACGGAA | -0.0455
AGAGCCCT | -0.249
AACGCGCT | -0.0561
GCAAATTA | 0.084
CCACTGGC | 0.0279
AAGGCTCA | -0.185
ATGGCCCG | -0.065
AAGTTGCC | -0.166
GCTGACAC | -0.0911
CATTCGTA | -0.0481
AGGGGTCA | 0.438
TACTCTAA | 0.141
ACATCATG | -0.113
AGCGGGGG | -0.349
CAGGCGAA | -0.179
AATAGTAA | 0.216
CGAGTTAG | 0.0552
GACAGGGA | -0.19
AAAGCGTT | 0.00705

Sequence | PBM E-score
CCCGTAGG | 0.131
GGCACCCA | 0.101
CTACACAA | 0.129
CCTCCATA | -0.106
ATAGCCGG | -0.074
CCTAACTA | 0.135
CGCTCCCA | -0.241
GTTTGTAA | 0.13
CCCAGATC | -0.187
CAAGAGTC | -0.0258
ACATTCTG | -0.183
ATACCCGG | 0.234
GCATAACC | 0.414
CACTGGGG | 0.0774
CAGACAAA | 0.125
ATGGAAAC | 0.0276
CCTGCAGA | -0.0116
GCGTCGTA | -0.0201
AACCGCCC | 0.0827
CACAATGC | -0.0567
GAAAGCAC | -0.0639
ATGAATCG | 0.0519
ACACTTAG | -0.0017
GCAGTGGA | -0.0424
GATTACGA | 0.144

Sequence | PBM E-score
AGCGGGAC | -0.0643
GATGGAGC | -0.337
GACTGCCC | -0.267
AAGGCTAA | -0.0104
ACACCAAG | 0.038
CTGACGGA | -0.09
AATCGAGC | -0.174
ACCGACGC | -0.183
AACTTCTG | -0.0719
CCGCGTAC | -0.0732
CCAAGGGA | -0.0225
CACGGCGA | 0.0127
CCTTCACA | 0.0885
TCCTGGAA | -0.016
ACTACTCC | -0.0247
GATGTATA | -0.0515
CCCACACC | 0.14
GGTGTTCA | 0.155
CGAGCTGA | 0.12
AGCAGCAT | -0.268
AGGTGACC | 0.393
CTCACCGA | -0.00747
ACCTGTTA | 0.0236
GTACCTAC | 0.0513
ACTTTTGC | -0.0825

Sequence | PBM E-score
CTAGCGTA | -0.213
AGACTAGC | -0.332
AAGTTGCT | -0.0577
ACAGGACA | 0.111
CGCACTGA | -0.228
GCTAAGGA | -0.344
ACCCGCCG | 0.287
AGGCATTG | -0.194
GGACACTA | 0.0122
AGTATCGA | 0.101
ACACCCAA | 0.049
TACGAATA | 0.197
CGACAGCG | -0.154
AAGTGACC | 0.256
ATGTTGGC | -0.144
CGAAGGCA | -0.222
CCTTTGAC | 0.055
CTCTTGGC | -0.0664
CGCGTCAC | -0.0897
GCCATTGA | 0.062
ATTTCAGG | 0.114
CCAACTTA | -0.0477
GAAGCTGC | -0.265
AAGACTAA | 0.0313
TGATGGAA | -0.118

Sequence | PBM E-score
ATGTCACA | 0.128
GTTTAAAA | 0.0834
AATGTGAG | -0.122
AGCAGCCG | 0.0213
AGAATGCG | -0.137
TCAGCCAA | -0.0551
ATCTCGCA | -0.0179
ATTAAACG | 0.23
CGACTGCC | -0.0988
ACAGCTCG | -0.119
GACCTTCA | 0.0992
ACAGGCGA | -0.24
CTAGTAAA | 0.206
CTATCGTC | -0.187
ACGAAAAC | 0.265
CTGGCTTC | -0.221
AAAGTCGT | -0.127
AAGCGGCT | -0.0418
CAAAACTG | 0.0208
ATCCCAAC | -0.0432
ACATGCCG | -0.241
AAGGACGT | -0.0905
TATGGGGA | 0.145
ATCGGTAC | 0.134
TAGCGCTA | -0.0121

Sequence | PBM E-score
ATCATAGA | 0.0302
CGCGGTGC | -0.00481
AAACAGTG | 0.0759
AGGGGAGG | 0.0257
ATCCACAT | -0.146
CAACTTCG | 0.0621
CTTCCTGA | 0.0551
AGCGTCCA | 0.0715
AATATTTG | 0.12
ATACGGGA | -0.049
CGATTGAC | 8e-05
CCTATATA | 0.229
ACCCGACA | 0.168
CAAGCTAA | 0.019
ACGCCAGA | -0.0691
AGACTCCG | -0.227
GATTGCGA | -0.029
CATATCAG | 0.0201
AGATTCTG | -0.117
